Laboratory results published in PubChem BioAssay (Tox21).
“And” between values parts separate entries of the source, which are not always exact repeats. Identical values can stand only once. The inconclusive results got no clear call from the source; some entries with a clear call stand among them for comparison. For some assays here: Potencies beside an inconclusive call are fits to weak or partial responses and may not hold up. The source made the active and inactive calls. Unless noted, the call rests on the fitted dose curve; in most records, active means well fitted curve in the direction sought with a large enough effect in the repeat runs; inconclusive means weak or mixed curves; inactive means no such curve, though single readings can be large; an effect the other way counts as inactive or inconclusive.

Experiments:
[1] = qHTS assay to identify small molecule agonists of H2AX - cell viability counter screen (AID 1224847; calls by dose curve; further: nearly all actives have a fitted effect of over 30% in size; further: potency means the concentration at half of the fitted maximal effect)
Method in brief: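 Wild-type CHO-K1 cells (10% FBS medium) were plated overnight at 37C, exposed to compounds at 15 concentrations for 3 hr at 37C (0.76% DMSO final), and viability was read as CellTiter-Glo luminescence after 30 min at room temperature.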

[2] = A CellTox Green Cytotoxicity Assay to monitor cytotoxicity in HEK293 cells - 40 hour (AID 1224871); further: nearly all actives have a fitted effect of over 45% in size; further: potency means the concentration at half of the fitted maximal effect
Method in brief: (§1)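 HEK293 cells premixed with CellTox Green dye were seeded at 600 cells/well and left 5 h at 37 C/5% CO2 before pin transfer of 23 nL compound in DMSO. Fluorescence from dye bound to dead-cell DNA was read during 40 h treatment.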

[3] = qHTS assay to identify small molecule antagonists of the estrogen related receptor (ERR) signaling pathway from Tox21 library (AID 1224848); further: nearly all actives have a fitted effect of over 50% in size; further: potency means the concentration at half of the fitted maximal effect
Method in brief: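 Luminescent reporter read-out (ONE-Glo) from NTP's ERR cell line after 18 h treatment at 37 C with DMSO-dissolved Tox21 compounds; cells pre-plated 6 h beforehand at 2,000 per well.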

[4] = qHTS RealTime-Glo MT Cell Viability Assay in HepG2 cells - 24 hour (AID 1224867); further: potency means the concentration at half of the fitted maximal effect; nearly all actives have a fitted effect of over 50% in size
Method in brief: (§2)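 Tox21 10K library screened in qHTS format on HepG2 cells carrying RealTime-Glo reagents. Compounds were added after a 5 h preincubation, and the luminescent signal from continuous culture was measured repeatedly during 40 h treatment.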

[5] = A CellTox Green Cytotoxicity Assay to monitor cytotoxicity in HEK293 cells - 0 hour (AID 1224869); further: potency means the concentration at half of the fitted maximal effect; nearly all actives have a fitted effect of over 50% in size
Method in brief: as §1

[6] = qHTS RealTime-Glo MT Cell Viability Assay in HepG2 cells - 40 hour (AID 1224870); further: potency means the concentration at half of the fitted maximal effect; nearly all actives have a fitted effect of over 50% in size
Method in brief: (§3)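 HepG2 cells (600/well) mixed with RealTime-Glo MT reagent, settled 5 h at 37 C/5% CO2 before compound addition. Nonlytic NanoLuc luminescence from viable-cell prosubstrate reduction read repeatedly during 40 h treatment at 37 C.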

[7] = qHTS RealTime-Glo MT Cell Viability Assay in HEK293 cells - 16 hour (AID 1224872)
Method in brief: (§4)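 Luminescence generated by NanoLuc from substrate produced by living HEK293 cells served as the viability signal. Each value reflects the reading at its stated time point during continuous 40 h compound exposure at 37 C.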

[8] = qHTS RealTime-Glo MT Cell Viability Assay in HEK293 cells - 40 hour (AID 1224874); conditions: RealTime-Glo luminescence; max response: stronger effect = lower value; further: nearly all actives have a fitted effect of over 50% in size; further: potency means the concentration at half of the fitted maximal effect; on max response: on the % scale 0 is the no-effect control and ±100 the full control effect
Method in brief: (§5)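 HEK293 cells mixed with RealTime-Glo reagents (NanoLuc plus cell-permeant prosubstrate) at 600 cells/well, preincubated 5 h at 37 C/5% CO2, then given 23 nL compound in DMSO. Nonlytic luminescence from viable cells was read at 0, 8, 16, 24, 32 and 40 h.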

[9] = qHTS RealTime-Glo MT Cell Viability Assay in HepG2 cells - 32 hour (AID 1224877); further: potency means the concentration at half of the fitted maximal effect; nearly all actives have a fitted effect of over 55% in size
Method in brief: as §2

[10] = A CellTox Green Cytotoxicity Assay to monitor cytotoxicity in HepG2 cells - 24 hour (AID 1224878); further: potency means the concentration at half of the fitted maximal effect; nearly all actives have a fitted effect of over 45% in size
Method in brief: (§6)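 HepG2 cells were seeded together with the CellTox Green dye at 600 cells/well, left 5 h at 37 C/5% CO2, then given compounds in DMSO. Fluorescence from dye bound to dead-cell DNA was read repeatedly over 40 h of treatment at 37 C.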

[11] = qHTS RealTime-Glo MT Cell Viability Assay in HEK293 cells - 0 hour (AID 1224880); further: nearly all actives have a fitted effect of over 45% in size; further: potency means the concentration at half of the fitted maximal effect
Method in brief: as §5

[12] = A CellTox Green Cytotoxicity Assay to monitor cytotoxicity in HepG2 cells - 16 hour (AID 1224876); further: potency means the concentration at half of the fitted maximal effect; nearly all actives have a fitted effect of over 45% in size
Method in brief: as §6

[13] = A CellTox Green Cytotoxicity Assay to monitor cytotoxicity in HEK293 cells - 32 hour (AID 1224881); further: nearly all actives have a fitted effect of over 40% in size; further: potency means the concentration at half of the fitted maximal effect
Method in brief: as §1

[14] = qHTS RealTime-Glo MT Cell Viability Assay in HEK293 cells - 32 hour (AID 1224868)
Method in brief: as §4

[15] = qHTS RealTime-Glo MT Cell Viability Assay in HepG2 cells - 8 hour (AID 1224873); further: potency means the concentration at half of the fitted maximal effect; nearly all actives have a fitted effect of over 55% in size
Method in brief: as §3

[16] = A CellTox Green Cytotoxicity Assay to monitor cytotoxicity in HepG2 cells - 40 hour (AID 1224879); further: potency means the concentration at half of the fitted maximal effect; nearly all actives have a fitted effect of over 40% in size
Method in brief: as §6

[17] = A CellTox Green Cytotoxicity Assay to monitor cytotoxicity in HEK293 cells - 24 hour (AID 1224875)
Method in brief: as §1
Tags describe the fitted curve by direction and shape.

**Q.** For `CCCCCCCCCC(=O)OC`, which Potency [1] is on record?
**A.** inactive

**Q.** And the Potency [2]?
**A.** inactive

**Q.** Which Potency [3] does the source give for `C[C@@H]1CN(CCCn2c3ccccc3c3ccccc32)C[C@H](C)N1` here?
**A.** inconclusive: 33.5 µM [inhibitor, single point]

**Q.** And the Potency [4]?
**A.** active: 23.9 µM

**Q.** And the Potency [5]?
**A.** inconclusive: 9.52 µM [activator, single point]

**Q.** And the Potency [6]?
**A.** active: 23.9 µM

**Q.** What about the Potency [7] of the same molecule?
**A.** active: 26.8 µM

**Q.** And the Potency [8]?
**A.** active: 23.9 µM

**Q.** And the Potency [9]?
**A.** active: 23.9 µM

**Q.** And the Potency [10]?
**A.** active: 26.8 µM

**Q.** And the Potency [11]?
**A.** inconclusive: 9.52 µM [rising, partial curve, poor fit]

**Q.** For `Cc1cccc(OCCOc2cccc(C)c2)c1`, which Potency [1] is on record?
**A.** inconclusive: 1.9 µM [cytotoxic, single point]

**Q.** What about the Potency [12] of the same molecule?
**A.** inconclusive: 65.4 µM [activator, partial curve, poor fit]

**Q.** What about the Potency [10] of the same molecule?
**A.** inconclusive: 58.3 µM [activator, single point]

**Q.** Which results are given for `CC(=O)Oc1ccc2c(c1)CC[C@@H]1[C@@H]2CC[C@]2(C)[C@@H](O)CC[C@@H]12`?
**A.** Potency [3]: inconclusive: 29.8 µM [inhibitor, partial curve]; Potency [2]: inconclusive: 26.8 µM [activator, single point]; Potency [7]: inconclusive: 19 µM [cytotoxic, partial curve]; Potency [10]: inconclusive: 26.8 µM [activator, single point]; Potency [13]: inconclusive: 26.8 µM [activator, single point]

**Q.** With `O=C1c2cccc(O)c2C(=O)c2c(O)cccc21` as the molecule, how does the Potency [3] read?
**A.** inconclusive: 27.6 µM [inhibitor, full curve] and inconclusive: 33.5 µM [inhibitor, single point]

**Q.** What about the Potency [14] of the same molecule?
**A.** inconclusive: 15.6 µM [rising, partial curve] and inconclusive: 16.9 µM [rising, partial curve]

**Q.** What about the Potency [7] of the same molecule?
**A.** inconclusive: 15.6 µM [rising, partial curve] and inconclusive: 19 µM [rising, partial curve]

**Q.** What about the Potency [8] of the same molecule?
**A.** inconclusive: 17.6 µM [rising, partial curve] and inconclusive: 16.9 µM [rising, partial curve]

**Q.** And the Potency [11]?
**A.** inconclusive: 55.5 µM [falling, single point]

**Q.** What does the source list for `Clc1cccc(Cl)c1NC1=NCCN1`?
**A.** Potency [1]: inactive; Potency [2]: inactive

**Q.** Which Potency [3] does the source give for `CCOC(=O)C1=C(C)NC(C)=C(C(=O)OC)C1c1cccc(Cl)c1Cl` (configuration not stated) here?
**A.** inconclusive: 26.6 µM [inhibitor, partial curve]

**Q.** What about the Potency [4] of the same molecule?
**A.** inconclusive: 21.3 µM [falling, partial curve]

**Q.** And the Potency [14]?
**A.** inconclusive: 26.8 µM [cytotoxic, single point]

**Q.** What about the Potency [6] of the same molecule?
**A.** inconclusive: 26.8 µM [falling, single point]

**Q.** What about the Potency [7] of the same molecule?
**A.** inconclusive: 26.8 µM [cytotoxic, single point]

**Q.** And the Potency [15]?
**A.** active: 19 µM

**Q.** What about the Potency [8] of the same molecule?
**A.** inconclusive: 26.8 µM [cytotoxic, single point]

**Q.** And the Potency [9]?
**A.** inconclusive: 21.3 µM [cytotoxic, partial curve]

**Q.** What about the Potency [11] of the same molecule?
**A.** active: 5.35 µM

**Q.** With `CC(C)(C)NCC(O)c1ccc(O)c(CO)c1` (configuration not stated) as the molecule, how does the Potency [1] read?
**A.** inactive

**Q.** What about the Potency [11] of the same molecule?
**A.** inactive

**Q.** For `Cc1ccccc1S(N)(=O)=O`, which Potency [1] is on record?
**A.** inactive

**Q.** And the Potency [13]?
**A.** inactive

**Q.** Which results are given for `CC1=C(/C=C/C(C)=C/C=C/C(C)=C/C(=O)O)C(C)(C)CCC1`?
**A.** Potency [1]: inconclusive: 101 µM [rising, partial curve]; Potency [2]: inactive and inconclusive: 61.6 µM [activator, single point]; Potency [12]: inconclusive: 26.8 µM [activator, single point]; Potency [10]: inconclusive: 26.8 µM [activator, single point]; Potency [16]: inconclusive: 37.9 µM [activator, partial curve, poor fit]

**Q.** Which Potency [3] does the source give for `COC(=O)C(C)Oc1ccc(Oc2ncc(C(F)(F)F)cc2Cl)cc1` (configuration not stated) here?
**A.** inconclusive: 48.6 µM [inhibitor, partial curve]

**Q.** And the Potency [14]?
**A.** inconclusive: 24.9 µM [cytotoxic, partial curve, poor fit]

**Q.** What about the Potency [7] of the same molecule?
**A.** inconclusive: 24.9 µM [cytotoxic, full curve] and inconclusive: 38.9 µM [cytotoxic, partial curve]

**Q.** And the Potency [8]?
**A.** inconclusive: 22.2 µM [cytotoxic, partial curve, poor fit]

**Q.** What about the Potency [17] of the same molecule?
**A.** inactive

**Q.** With `CC1=C(CC=O)C(C)(C)CCC1` as the molecule, how does the Potency [1] read?
**A.** inconclusive: 2.01 µM [cytotoxic, single point]

**Q.** And the max response [8]?
**A.** inactive: -9.82%

**Q.** What about the Potency [11] of the same molecule?
**A.** inconclusive: 34.7 µM [falling, partial curve]

**Q.** What does the source list for `CCN(CC)CCOc1ccccc1C(=O)CCc1ccccc1`?
**A.** Potency [3]: inconclusive: 26.6 µM [inhibitor, partial curve]; Potency [7]: active: 10.7 µM; Potency [8]: active: 10.7 µM

**Q.** For `CN(C)CCC=C1c2ccccc2C=Cc2ccccc21`, which Potency [3] is on record?
**A.** inactive

**Q.** And the Potency [14]?
**A.** inconclusive: 21.3 µM [cytotoxic, partial curve]

**Q.** And the Potency [2]?
**A.** inconclusive: 23.9 µM [activator, partial curve, poor fit]

**Q.** What about the Potency [8] of the same molecule?
**A.** inconclusive: 21.3 µM [cytotoxic, partial curve]

**Q.** And the Potency [11]?
**A.** inconclusive: 26.8 µM [rising, single point]

**Q.** What does the source list for `O=C(O)c1cccc(-c2noc(-c3ccccc3F)n2)c1`?
**A.** Potency [1]: inconclusive: 24.7 µM [cytotoxic, partial curve]; Potency [2]: inactive
